This passage reports binding signal results from publication PMC9911399, “Two distinct binding modes provide the RNA-binding protein RbFox with extraordinary sequence specificity”.

Where a chain is given by its changes, count along the chain named. The list shows a part of the results.

Sequences and labels used below:
T1: RBFOX1 RRM RbFoxmut (Fox-RRM*) (Homo sapiens, UniProt Q9NWB1 109-208, R118D;E147R;N151S;E152T)
T1 sequence: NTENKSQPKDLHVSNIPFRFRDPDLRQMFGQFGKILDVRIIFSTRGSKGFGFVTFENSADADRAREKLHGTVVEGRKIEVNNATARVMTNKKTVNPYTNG

B1: AUGCCCG (DNA:RNA)
RNA: GGGAGACCGGAAUUCAGAUUGUCCAUGCCCGUUAAAUCCCGUCGUAGCCACCA
DNA 1: CAATCTGAATTCCGGTCTCCC
DNA 2: TGGTGGCTACGACGGGATT
B2: GAUAGAG (DNA:RNA)
RNA: B1 RNA with A25G, U26A, G27U, C28A, C29G, C30A
DNA 1: CAATCTGAATTCCGGTCTCCC
DNA 2: TGGTGGCTACGACGGGATT
B3: UCGUAAA (DNA:RNA)
RNA: B1 RNA with A25U, U26C, C28U, C29A, C30A, G31A
DNA 1: CAATCTGAATTCCGGTCTCCC
DNA 2: TGGTGGCTACGACGGGATT
B4: ACUCAUU (DNA:RNA)
RNA: B1 RNA with U26C, G27U, C29A, C30U, G31U
DNA 1: CAATCTGAATTCCGGTCTCCC
DNA 2: TGGTGGCTACGACGGGATT
B5: CUCCUAC (DNA:RNA)
RNA: B1 RNA with A25C, G27C, C29U, C30A, G31C
DNA 1: CAATCTGAATTCCGGTCTCCC
DNA 2: TGGTGGCTACGACGGGATT
B6: CCACAAA (DNA:RNA)
RNA: B1 RNA with A25C, U26C, G27A, C29A, C30A, G31A
DNA 1: CAATCTGAATTCCGGTCTCCC
DNA 2: TGGTGGCTACGACGGGATT
B7: AUUUCCG (DNA:RNA)
RNA: B1 RNA with G27U, C28U
DNA 1: CAATCTGAATTCCGGTCTCCC
DNA 2: TGGTGGCTACGACGGGATT
B8: GCACGAA (DNA:RNA)
RNA: B1 RNA with A25G, U26C, G27A, C29G, C30A, G31A
DNA 1: CAATCTGAATTCCGGTCTCCC
DNA 2: TGGTGGCTACGACGGGATT
B9: GUCCAUC (DNA:RNA)
RNA: B1 RNA with A25G, G27C, C29A, C30U, G31C
DNA 1: CAATCTGAATTCCGGTCTCCC
DNA 2: TGGTGGCTACGACGGGATT
B10: UUCCACA (DNA:RNA)
RNA: B1 RNA with A25U, G27C, C29A, G31A
DNA 1: CAATCTGAATTCCGGTCTCCC
DNA 2: TGGTGGCTACGACGGGATT
B11: UCUAUUA (DNA:RNA)
RNA: GGGAGACCGGAAUUCAGAUUGUCCUCUAUUAUUAAAUCCCGUCGUAGCCACCA
DNA 1: CAATCTGAATTCCGGTCTCCC
DNA 2: TGGTGGCTACGACGGGATT
B12: AGGACAA (DNA:RNA)
RNA: B1 RNA with U26G, C28A, C30A, G31A
DNA 1: CAATCTGAATTCCGGTCTCCC
DNA 2: TGGTGGCTACGACGGGATT
B13: CCCGGAA (DNA:RNA)
RNA: B11 RNA with U25C, U27C, A28G, U29G, U30A
DNA 1: CAATCTGAATTCCGGTCTCCC
DNA 2: TGGTGGCTACGACGGGATT
B14: ACCAGUA (DNA:RNA)
RNA: B11 RNA with U25A, U27C, U29G
DNA 1: CAATCTGAATTCCGGTCTCCC
DNA 2: TGGTGGCTACGACGGGATT
B15: UGCCCCU (DNA:RNA)
RNA: B1 RNA with A25U, U26G, G27C, G31U
DNA 1: CAATCTGAATTCCGGTCTCCC
DNA 2: TGGTGGCTACGACGGGATT
B16: GAUGUUC (DNA:RNA)
RNA: B11 RNA with U25G, C26A, A28G, A31C
DNA 1: CAATCTGAATTCCGGTCTCCC
DNA 2: TGGTGGCTACGACGGGATT
B17: AAUAACA (DNA:RNA)
RNA: B11 RNA with U25A, C26A, U29A, U30C
DNA 1: CAATCTGAATTCCGGTCTCCC
DNA 2: TGGTGGCTACGACGGGATT
B18: UCGAGUA (DNA:RNA)
RNA: B11 RNA with U27G, U29G
DNA 1: CAATCTGAATTCCGGTCTCCC
DNA 2: TGGTGGCTACGACGGGATT
B19: AAAACCC (DNA:RNA)
RNA: B1 RNA with U26A, G27A, C28A, G31C
DNA 1: CAATCTGAATTCCGGTCTCCC
DNA 2: TGGTGGCTACGACGGGATT
B20: CGCGCGA (DNA:RNA)
RNA: B1 RNA with A25C, U26G, G27C, C28G, C30G, G31A
DNA 1: CAATCTGAATTCCGGTCTCCC
DNA 2: TGGTGGCTACGACGGGATT
B21: GGCGGCC (DNA:RNA)
RNA: B1 RNA with A25G, U26G, G27C, C28G, C29G, G31C
DNA 1: CAATCTGAATTCCGGTCTCCC
DNA 2: TGGTGGCTACGACGGGATT
B22: UCUACUU (DNA:RNA)
RNA: B11 RNA with U29C, A31U
DNA 1: CAATCTGAATTCCGGTCTCCC
DNA 2: TGGTGGCTACGACGGGATT
B23: UUGCAUU (DNA:RNA)
RNA: B1 RNA with A25U, C29A, C30U, G31U
DNA 1: CAATCTGAATTCCGGTCTCCC
DNA 2: TGGTGGCTACGACGGGATT
B24: AGUCCCG (DNA:RNA)
RNA: B1 RNA with U26G, G27U
DNA 1: CAATCTGAATTCCGGTCTCCC
DNA 2: TGGTGGCTACGACGGGATT
B25: UCCUGCC (DNA:RNA)
RNA: B11 RNA with U27C, A28U, U29G, U30C, A31C
DNA 1: CAATCTGAATTCCGGTCTCCC
DNA 2: TGGTGGCTACGACGGGATT
B26: UGACACU (DNA:RNA)
RNA: B1 RNA with A25U, U26G, G27A, C29A, G31U
DNA 1: CAATCTGAATTCCGGTCTCCC
DNA 2: TGGTGGCTACGACGGGATT
B27: CCAACGC (DNA:RNA)
RNA: B11 RNA with U25C, U27A, U29C, U30G, A31C
DNA 1: CAATCTGAATTCCGGTCTCCC
DNA 2: TGGTGGCTACGACGGGATT
B28: CAUAGUA (DNA:RNA)
RNA: B11 RNA with U25C, C26A, U29G
DNA 1: CAATCTGAATTCCGGTCTCCC
DNA 2: TGGTGGCTACGACGGGATT
B29: GCAACAU (DNA:RNA)
RNA: B11 RNA with U25G, U27A, U29C, U30A, A31U
DNA 1: CAATCTGAATTCCGGTCTCCC
DNA 2: TGGTGGCTACGACGGGATT
B30: UGCUUUA (DNA:RNA)
RNA: B11 RNA with C26G, U27C, A28U
DNA 1: CAATCTGAATTCCGGTCTCCC
DNA 2: TGGTGGCTACGACGGGATT
B31: GUUGGUA (DNA:RNA)
RNA: B11 RNA with U25G, C26U, A28G, U29G
DNA 1: CAATCTGAATTCCGGTCTCCC
DNA 2: TGGTGGCTACGACGGGATT

This test addresses T1, RBFOX1 RRM RbFoxmut (Fox-RRM*). The test can be described thus: EMSA; HiTS-Eq, 1 nM pool, 10 min; buffer printed only for the single-RNA assays: 10 mM Tris pH 7.5, 150 mM NaCl, 3.4 mM EDTA, 0.001% NP-40, 30 C. As to conditions: tags: His6 N-terminal (pET28a); label: 5' 32P. An outline of the steps: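 Relative association constants, normalised to the cognate motif, were derived by comparing read counts of each RNA species with those of the control reaction. The RNA sequenced was the free fraction, separated by 8% native PAGE after a 10 min equilibration in 50 µL of 1 nM 5′-radiolabelled RNA (7 randomized nucleotides) with increasing concentrations of purified wild-type or mutant RbFox RRM.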
(In general: Mobility shift assays separate free from complexed probe on a gel.)
With B1, the binding signal is 0.113 KA relative to UGCAUGU.

As to B2, the binding signal was 0.119 KA relative to UGCAUGU. In the case of B3 it was 0.142 KA relative to UGCAUGU; in that of B4, 0.0769 KA relative to UGCAUGU.

On to B5, for which the binding signal is 0.106 KA relative to UGCAUGU. Turning to B6, the binding signal was 0.0638 KA relative to UGCAUGU.

On to B7, for which the binding signal is 0.0706 KA relative to UGCAUGU. In the case of B8 it was 0.256 KA relative to UGCAUGU. Consider B9, for which the binding signal is 0.0764 KA relative to UGCAUGU. Then B10, with 0.0981 KA relative to UGCAUGU. Take B11: the binding signal was 0.118 KA relative to UGCAUGU.

Turning to B12, the binding signal is 0.0419 KA relative to UGCAUGU.

Consider B13, for which the binding signal is 0.0792 KA relative to UGCAUGU.

B14: the binding signal was 0.118 KA relative to UGCAUGU. As to B15, the binding signal was 0.0785 KA relative to UGCAUGU. Then B16, with 0.0893 KA relative to UGCAUGU; and B17, with 0.072 KA relative to UGCAUGU.

Consider B18, for which the binding signal was 0.16 KA relative to UGCAUGU.

With B19, the binding signal was 0.0666 KA relative to UGCAUGU. Then B20, with 0.0872 KA relative to UGCAUGU; and B21, with 0.16 KA relative to UGCAUGU. As to B22, the binding signal is 0.0863 KA relative to UGCAUGU.

B23: the binding signal was 0.131 KA relative to UGCAUGU. In the case of B24 it was 0.0796 KA relative to UGCAUGU. In the case of B25 it was 0.29 KA relative to UGCAUGU.

For the molecule B26, the binding signal was 0.0662 KA relative to UGCAUGU. For B27, the binding signal is 0.104 KA relative to UGCAUGU. As to B28, the binding signal was 0.173 KA relative to UGCAUGU. In the case of B29 it was 0.0911 KA relative to UGCAUGU; in that of B30, 0.144 KA relative to UGCAUGU; in that of B31, 0.21 KA relative to UGCAUGU.
